Assay [1] has as its target IGF-1R 단백질 (Sino biological Inc. 10164H08H) (UniProt P08069 31-932). As to the kind of experiment: ELISA, coated IGF-1R (50 ng/well), anti-human Fc-HRP. On the technique in general: In an ELISA, binding on a coated surface is turned into a signal by an enzyme label.
In assay [2] the target is T1, 재조합 IGF-1R (R&D systems, 391-GR) (human, UniProt P08069 31-932).
T1 construct: range 1-932; Bought protein; also called 재조합 인슐린 유사 성장인자-1 수용체; 391-GR-050
Nature of the assay: SPR (BiaCore T200), antibody captured by anti-human IgG Fc on CM5, IGF-1R as analyte. On the technique in general: SPR reads the build-up and loss of mass on a sensor chip optically.

For orientation: EC50 means the concentration at which the effect is half-maximal. A high value points to lower potency in that assay. A word on the Kd: it is the constant that tells how readily two partners part at equilibrium. The low end stands for a tighter complex, the high end for a looser complex. One may read the koff as a measure of how fast the partners let go of each other. A high value points to a short-lived complex. As usually defined, the kon is the second-order rate constant of association. A higher kon goes with faster complex formation.

B1: MKJP2-IL2 융합 단일클론항체 (항 IGF-1R_IL2) (other)
heavy: EVQLLESGGGLAQPGGSLRLSCAASGFTFSGYAMSWVRQAPGKGLEWVSAISSDGGSTYYADSVKGRFTISRDNSKNTLYLQMNSLRAEDTAVYYCARDPWFSRWTAFDYWGQGTLVTVSS[human IgG1 constant region not spelt out]GGGGSGGGGSGGGGS[about 150 residues not spelt out]
light: QSVLTQPPSASGTPGQRVTISCSGSSSNIGNNAVNWYQQLPGTAPKLLIYSNSKRPSGVPDRFSGSKSGTSASLAISGLRSEDEADYYCGTWDYSLSGYVFGGGTKLTVLGQPKAAPSVTLFPPSSEELQANKATLVCLISDFYPGAVTVAWKADSSPVKAGVETTTPSKQSNNKYAASSYLSLTPEQWKSHRSYSCQVTHEGSTVEKTVAPAECS
notes: also called MKJP-IL2
As to B1, in assay [1], the EC50 came out at 123 pM. In assay [2], this molecule gave a Kd of 352 pM, a koff of 2.91e-05 s⁻¹ and a kon of 82800 M⁻¹ s⁻¹.

The record behind these values is KR20140148294A (dated 2014).
